In the supplement of paper PMC10369915 one finds enrichment score data, which are given here for 19 molecules.

Some of the results follow. Rule as the data show it: active = 3.2 or more and inactive = the rest. Most of these values are background signal.
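Also: displayed peptides selected on beads carrying the immobilized SH2 domain, with library peptides lacking any tyrosine serving as negative controls.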

The target of the first assay is SHP2 C-SH2 domain E139D. As to the kind of experiment: enrichment score (SH2-bound / input frequency) (ratio); bacterial display of known human phosphotyrosine sites (pTyr-Var adds point mutants) read by sequencing; higher = stronger binding; tyrosines were phosphorylated by kinases first. To be noted: peptide library: pTyr-Var.
In the case of RMDGTYACSFT [FLNB_Y704_YF], the enrichment score is inactive: 0.623.

KGEDFYCVTRH [FHL1_Y149_C153R]: the enrichment score is inactive: 0.681.

For the molecule AVDVTYDGHPV [FLNB_Y1020], the enrichment score is inactive: 0.591.

On to QLAPQYTFAQG [FLNA_Y1761_YF], for which the enrichment score was inactive: 0.777.

For YCVDCYKNFVA [FHL1_Y213], the enrichment score is inactive: 2.43.

In the case of KKARAYRPGIE [FLNA_Y287_G288R], the enrichment score is inactive: 0.321.

As for GPGLVYRVANK [FLNB_Y1833_G1834R], the enrichment score was inactive: 0.813.

On to KGEDFYCVTCP [FHL1_Y149_H154P], for which the enrichment score was inactive: 3.07.

Regarding FCVDCYKNFVA [FHL1_Y213_YF], the enrichment score is active: 3.44.

In the case of PGLSSYGVPGS [FLNB_Y1530_A1534G], the enrichment score is inactive: 0.817.

Turning to SPFEVYVDKSQ [FLNA_Y373], the enrichment score was inactive: 0.584.

As to KNEKVYTRHGV [FLOT1_Y56_S52N], the enrichment score was inactive: 0.47.

For QLAPQYTYTQG [FLNA_Y1761_A1764T], the enrichment score is inactive: 0.653.

Take HSVVQYVGGVM [FGGY_Y136_L134V]: the enrichment score was inactive: 0.896.

For the molecule GRVLGYGTFGK [FLT4_Y853_A855T], the enrichment score is inactive: 1.16.

AVEDQYFRVDC [FHL1_Y207_C209R_YF]: the enrichment score was inactive: 1.04.

Turning to APQFTYTQGGQ [FLNA_Y1763_A1764T_YF], the enrichment score was inactive: 0.81.

Regarding LGLDECLDKLK [FMNL2_Y352_Y352C], the enrichment score is inactive: 1.14.

Take QLAPQYTFTQG [FLNA_Y1761_A1764T_YF]: the enrichment score was inactive: 0.899.

The target of the next assay is SHP2 C-SH2 domain wild-type. The assay is described as above. Particulars: peptide library: pTyr-Var.
As for RMDGTYACSFT [FLNB_Y704_YF], the enrichment score was inactive: 1.02.

Regarding KGEDFYCVTRH [FHL1_Y149_C153R], the enrichment score is inactive: 1.05.

In the case of AVDVTYDGHPV [FLNB_Y1020], the enrichment score is inactive: 0.585.

Regarding QLAPQYTFAQG [FLNA_Y1761_YF], the enrichment score is inactive: 0.863.

Regarding YCVDCYKNFVA [FHL1_Y213], the enrichment score is inactive: 2.17.

As to KKARAYRPGIE [FLNA_Y287_G288R], the enrichment score was inactive: 0.247.

Regarding GPGLVYRVANK [FLNB_Y1833_G1834R], the enrichment score was inactive: 0.742.

KGEDFYCVTCP [FHL1_Y149_H154P]: the enrichment score was inactive: 2.65.

Take FCVDCYKNFVA [FHL1_Y213_YF]: the enrichment score was inactive: 3.08.

For PGLSSYGVPGS [FLNB_Y1530_A1534G], the enrichment score is inactive: 0.717.

In the case of SPFEVYVDKSQ [FLNA_Y373], the enrichment score is inactive: 0.942.

KNEKVYTRHGV [FLOT1_Y56_S52N]: the enrichment score was inactive: 0.654.

With QLAPQYTYTQG [FLNA_Y1761_A1764T], the enrichment score is inactive: 0.731.

On to HSVVQYVGGVM [FGGY_Y136_L134V], for which the enrichment score is inactive: 1.36.

In the case of GRVLGYGTFGK [FLT4_Y853_A855T], the enrichment score is inactive: 1.38.

For AVEDQYFRVDC [FHL1_Y207_C209R_YF], the enrichment score was inactive: 0.98.

Take APQFTYTQGGQ [FLNA_Y1763_A1764T_YF]: the enrichment score was inactive: 0.59.

In the case of LGLDECLDKLK [FMNL2_Y352_Y352C], the enrichment score was inactive: 1.26.

Take QLAPQYTFTQG [FLNA_Y1761_A1764T_YF]: the enrichment score is inactive: 0.627.

Another assay deals with SHP2 N-SH2 domain L43F. The description is as above. To be noted: peptide library: pTyr-Var.
Turning to RMDGTYACSFT [FLNB_Y704_YF], the enrichment score is inactive: 0.794.

As to KGEDFYCVTRH [FHL1_Y149_C153R], the enrichment score was inactive: 0.987.

Consider AVDVTYDGHPV [FLNB_Y1020], for which the enrichment score is inactive: 0.657.

As for QLAPQYTFAQG [FLNA_Y1761_YF], the enrichment score is inactive: 0.734.

With YCVDCYKNFVA [FHL1_Y213], the enrichment score is inactive: 2.15.

Turning to KKARAYRPGIE [FLNA_Y287_G288R], the enrichment score was inactive: 0.309.

Consider GPGLVYRVANK [FLNB_Y1833_G1834R], for which the enrichment score was inactive: 0.803.

Take KGEDFYCVTCP [FHL1_Y149_H154P]: the enrichment score is inactive: 2.99.

Regarding FCVDCYKNFVA [FHL1_Y213_YF], the enrichment score is active: 3.45.

In the case of PGLSSYGVPGS [FLNB_Y1530_A1534G], the enrichment score was inactive: 0.644.

For SPFEVYVDKSQ [FLNA_Y373], the enrichment score was inactive: 0.758.

As to KNEKVYTRHGV [FLOT1_Y56_S52N], the enrichment score was inactive: 0.677.

Regarding QLAPQYTYTQG [FLNA_Y1761_A1764T], the enrichment score is inactive: 0.632.

As to HSVVQYVGGVM [FGGY_Y136_L134V], the enrichment score is inactive: 1.04.

For GRVLGYGTFGK [FLT4_Y853_A855T], the enrichment score was inactive: 0.686.

On to AVEDQYFRVDC [FHL1_Y207_C209R_YF], for which the enrichment score is inactive: 0.834.

Regarding APQFTYTQGGQ [FLNA_Y1763_A1764T_YF], the enrichment score was inactive: 0.642.

With LGLDECLDKLK [FMNL2_Y352_Y352C], the enrichment score was inactive: 1.64.

For QLAPQYTFTQG [FLNA_Y1761_A1764T_YF], the enrichment score was inactive: 0.875.

Another assay deals with SHP2 N-SH2 domain T42A. The description is as above. Particulars: peptide library: pTyr-Var.
With RMDGTYACSFT [FLNB_Y704_YF], the enrichment score was inactive: 0.93.

In the case of KGEDFYCVTRH [FHL1_Y149_C153R], the enrichment score was inactive: 0.611.

Regarding AVDVTYDGHPV [FLNB_Y1020], the enrichment score was inactive: 0.712.

Take QLAPQYTFAQG [FLNA_Y1761_YF]: the enrichment score was inactive: 0.51.

With YCVDCYKNFVA [FHL1_Y213], the enrichment score was inactive: 1.94.

With KKARAYRPGIE [FLNA_Y287_G288R], the enrichment score was inactive: 0.252.

Regarding GPGLVYRVANK [FLNB_Y1833_G1834R], the enrichment score was inactive: 0.679.

Regarding KGEDFYCVTCP [FHL1_Y149_H154P], the enrichment score is inactive: 2.24.

Consider FCVDCYKNFVA [FHL1_Y213_YF], for which the enrichment score is inactive: 2.51.

For the molecule PGLSSYGVPGS [FLNB_Y1530_A1534G], the enrichment score is inactive: 0.543.

As for SPFEVYVDKSQ [FLNA_Y373], the enrichment score is inactive: 1.15.

Consider KNEKVYTRHGV [FLOT1_Y56_S52N], for which the enrichment score was inactive: 0.742.

Regarding QLAPQYTYTQG [FLNA_Y1761_A1764T], the enrichment score was inactive: 0.873.

As for HSVVQYVGGVM [FGGY_Y136_L134V], the enrichment score is inactive: 1.09.

As to GRVLGYGTFGK [FLT4_Y853_A855T], the enrichment score was inactive: 1.08.

In the case of AVEDQYFRVDC [FHL1_Y207_C209R_YF], the enrichment score was inactive: 0.667.

For the molecule APQFTYTQGGQ [FLNA_Y1763_A1764T_YF], the enrichment score was inactive: 0.706.

With LGLDECLDKLK [FMNL2_Y352_Y352C], the enrichment score is inactive: 0.977.

As for QLAPQYTFTQG [FLNA_Y1761_A1764T_YF], the enrichment score was inactive: 0.734.

The next assay concerns the target SHP2 N-SH2 domain T52S. The description is as above. To be noted: peptide library: pTyr-Var.
With RMDGTYACSFT [FLNB_Y704_YF], the enrichment score is inactive: 0.758.

On to KGEDFYCVTRH [FHL1_Y149_C153R], for which the enrichment score is inactive: 0.682.

For AVDVTYDGHPV [FLNB_Y1020], the enrichment score is inactive: 0.694.

In the case of QLAPQYTFAQG [FLNA_Y1761_YF], the enrichment score is inactive: 0.758.

Regarding YCVDCYKNFVA [FHL1_Y213], the enrichment score is inactive: 2.25.

For the molecule KKARAYRPGIE [FLNA_Y287_G288R], the enrichment score was inactive: 0.375.

Consider GPGLVYRVANK [FLNB_Y1833_G1834R], for which the enrichment score was inactive: 0.733.

KGEDFYCVTCP [FHL1_Y149_H154P]: the enrichment score is inactive: 2.79.

Regarding FCVDCYKNFVA [FHL1_Y213_YF], the enrichment score is active: 3.23.

With PGLSSYGVPGS [FLNB_Y1530_A1534G], the enrichment score is inactive: 0.475.

Turning to SPFEVYVDKSQ [FLNA_Y373], the enrichment score is inactive: 0.757.

KNEKVYTRHGV [FLOT1_Y56_S52N]: the enrichment score is inactive: 0.602.

For QLAPQYTYTQG [FLNA_Y1761_A1764T], the enrichment score was inactive: 0.627.

Regarding HSVVQYVGGVM [FGGY_Y136_L134V], the enrichment score is inactive: 0.819.

Consider GRVLGYGTFGK [FLT4_Y853_A855T], for which the enrichment score is inactive: 0.776.

For AVEDQYFRVDC [FHL1_Y207_C209R_YF], the enrichment score was inactive: 0.757.

APQFTYTQGGQ [FLNA_Y1763_A1764T_YF]: the enrichment score was inactive: 0.648.

Take LGLDECLDKLK [FMNL2_Y352_Y352C]: the enrichment score is inactive: 1.1.

In the case of QLAPQYTFTQG [FLNA_Y1761_A1764T_YF], the enrichment score was inactive: 0.586.

The next assay concerns the target SHP2 N-SH2 domain wild-type. The assay is described as above. To be noted: peptide library: pTyr-Var.
With RMDGTYACSFT [FLNB_Y704_YF], the enrichment score was inactive: 1.2.

For the molecule KGEDFYCVTRH [FHL1_Y149_C153R], the enrichment score is inactive: 0.985.

On to AVDVTYDGHPV [FLNB_Y1020], for which the enrichment score is inactive: 0.677.

In the case of QLAPQYTFAQG [FLNA_Y1761_YF], the enrichment score was inactive: 0.761.

For YCVDCYKNFVA [FHL1_Y213], the enrichment score was inactive: 2.15.

In the case of KKARAYRPGIE [FLNA_Y287_G288R], the enrichment score is inactive: 0.315.

With GPGLVYRVANK [FLNB_Y1833_G1834R], the enrichment score was inactive: 0.789.

As for KGEDFYCVTCP [FHL1_Y149_H154P], the enrichment score is inactive: 2.52.

For FCVDCYKNFVA [FHL1_Y213_YF], the enrichment score is inactive: 2.61.

For PGLSSYGVPGS [FLNB_Y1530_A1534G], the enrichment score was inactive: 0.736.

For the molecule SPFEVYVDKSQ [FLNA_Y373], the enrichment score is inactive: 1.04.

In the case of KNEKVYTRHGV [FLOT1_Y56_S52N], the enrichment score is inactive: 0.559.

For QLAPQYTYTQG [FLNA_Y1761_A1764T], the enrichment score is inactive: 0.566.

Take HSVVQYVGGVM [FGGY_Y136_L134V]: the enrichment score was inactive: 1.1.

For the molecule GRVLGYGTFGK [FLT4_Y853_A855T], the enrichment score is inactive: 1.3.

For AVEDQYFRVDC [FHL1_Y207_C209R_YF], the enrichment score is inactive: 0.979.

Take APQFTYTQGGQ [FLNA_Y1763_A1764T_YF]: the enrichment score was inactive: 0.625.

On to LGLDECLDKLK [FMNL2_Y352_Y352C], for which the enrichment score is inactive: 1.26.

Consider QLAPQYTFTQG [FLNA_Y1761_A1764T_YF], for which the enrichment score was inactive: 0.64.
